Assay results published in ChEMBL document CHEMBL1201862, “PubChem BioAssay data set” (2004).
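Grown in 96-well plates, cells were treated for 48 hours with each compound at five concentrations. Insufficient inhibition: endpoint recorded as highest concentration tested. Here, GI50 denotes the concentration required for 50% inhibition of growth.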 The source made the active and inactive calls. No stated cut-off is given here; in the data, active = GI50 up to about 1.1 µM and inactive = higher.

Each compound was assayed on NCI-H322M (assay: DTP human tumour cell line panel, 48 h).

SMILES | GI50
O=C1c2ccccc2C(=O)c2c(NCC3CO3)ccc(NCC3CO3)c21 (centres undefined) | inactive: 12.9 µM
O=c1c2ccccc2[nH]c2c(O)ccc(O)c12 | inactive: 45.9 µM
Cc1ccc(C2=C(Cl)C(=O)C(c3ccc(C)cc3)=C(Cl)C2=O)cc1 | inactive: > 100 µM
O=[N+]([O-])C(=C1NCCN1)C(Cl)=C(Cl)Cl | inactive: > 100 µM
O=C(Nc1ccc(-c2cn3ccccc3n2)cc1)c1cc(Br)ccc1O | inactive: > 100 µM
NS(=O)(=O)OCCCCCCCOS(N)(=O)=O | inactive: 504 µM
COc1ccc(CC(C)NCC(O)c2ccc(O)c(NC=O)c2)cc1 (centres undefined) | inactive: > 100 µM
N=C(N)N/N=C/c1c(-c2ccc(Cl)cc2)nc2sc(Cl)cn12 | inactive: 1.63 µM
COc1cc(NCc2ccc3nc(OC)c(OC)nc3c2)cc(OC)c1OC | inactive: 70.8 µM
O=C(/C=C/c1ccccc1F)c1ccc([N+](=O)[O-])cc1 | inactive: 48.9 µM
Cc1nc(C)c(C(=O)NNC(=O)Cc2ccccc2)cc1C(=O)NNC(=O)Cc1ccccc1 | inactive: > 100 µM
N=c1c2c3n(c4c(=O)n(-c5ccccc5)c(=S)n(c(=O)n1-c1ccccc1)c24)CCCCC3 | inactive: > 100 µM
COc1ccc2c(c1)[n+]([O-])c(-c1ccc(Br)cc1)c(N)[n+]2[O-] | inactive: 28.6 µM
N#CCC(=O)N1CCCOCCC1 | inactive: > 100 µM
COC(=O)C1=C(C)N(NC(N)=O)C2(N)N(NC(N)=O)C(C)=C(C(=O)OC)C12C(=O)OC (centres undefined) | inactive: > 100 µM
C#CCOC(=O)C(N)CSSCC(N)C(=O)O (centres undefined) | inactive: > 100 µM
CS(=O)(=O)Nc1ccc2c(c1)N(S(C)(=O)=O)CC2COS(C)(=O)=O (centres undefined) | inactive: > 100 µM
CCOC(=O)N/N=C(/N)c1cccc(Br)c1 | inactive: > 100 µM
Cc1cc(CC(O)(C(F)(F)F)C(F)(F)F)cc(CC(O)(C(F)(F)F)C(F)(F)F)n1 | inactive: 5.04 µM
CNC(=O)NCCN1CC2CCC(CC2)C1 | inactive: > 10 µM
CCCN1C(=O)/C(=C(/O)C(=O)OCC)C(c2ccc(OC)c(OC)c2)C1=O (centres undefined) | inactive: > 95.1 µM
Cc1cc(=O)oc2c(CNC(CO)C(=O)O)c(O)ccc12 (centres undefined) | inactive: > 100 µM
COc1ccc(/N=C2\C(=N/c3ccc(OC)cc3)N(c3ccccc3[N+](=O)[O-])C(=S)N2c2ccc(OC)cc2)cc1 | inactive: > 100 µM
C[C@H]1CCC/C=C/[C@@H]2C[C@H](OC(=O)CN(C)C)C[C@H]2[C@H](O)/C=C/C(=O)O1 | active: 0.1 µM

SMILES | GI50
COc1cc2c(c(OC)c1O)-c1ccc(SC)c(=O)cc1C(NC(C)=O)CC2 (centres undefined) | active: 0.0265 µM
COc1ccc(Nc2nc3ccc(C(F)(F)F)cc3nc2C(=O)O)cc1 | inactive: 47.9 µM
Cn1c(=O)nc2n(CCO)ccnc-2c1=O | inactive: > 100 µM
Cc1c(C)c2c(c(N)c1C#N)C(=O)N(Cc1ccc(S(N)(=O)=O)cc1)C2=O | inactive: > 100 µM
CCCCC(=C=C(C)CO)C1CCCN1C(=O)OC(C)(C)C (centres undefined) | inactive: 23.4 µM
[N-]=[N+]=Nc1ccccc1Oc1ccccc1 | inactive: > 100 µM
O=C(Nc1nc2ncn(CC(COc3ccccc3)OC(=O)c3ccccc3)c2c(=O)[nH]1)c1ccccc1 (centres undefined) | inactive: > 100 µM
COc1ncnc2c(Cl)c(C(O)c3ccccc3)c(Cl)cc12 (centres undefined) | inactive: 38.7 µM
COC(=O)c1ccccc1CC1Cc2cc3c(cc2C1)CCC3 | inactive: 97.3 µM
CC(C)(C)OC(=O)NCCCCCCC(=O)Cc1ccccc1 | inactive: > 100 µM
Cc1[nH]c2c(c1Cc1ccccc1)C1=NC=C(O)NN1C=N2 | inactive: > 100 µM
NNc1c(C(N)=O)c2c(N)ncnc2n1C1OC(CO)C(O)C1O (centres undefined) | active: 0.139 µM
COc1ccc(-n2cnc3c(NCC(=O)O)ncnc32)cc1 | inactive: > 100 µM
COc1cc(OC)c(/C=N\Nc2nc3ccccc3c(=O)n2-c2ccccc2)c(OC)c1 | inactive: 23.5 µM
CC1(C)CC(=O)C2=C(C1)S/C(=C1/SC3=C(S1)C(=O)CC(C)(C)C3)S2 | inactive: > 251 µM
C=CCSc1nc2c(N)ncnc2n1C1OC(CO)C(O)C1O (centres undefined) | inactive: > 100 µM
CC(C)(C)c1cc(C(O)(C(F)(F)F)C(F)(F)F)c2c(c1)C(C(F)(F)F)(C(F)(F)F)OC(C(C)(C)C)N2 (centres undefined) | inactive: 3.48 µM
O=C1c2ccccc2C(=O)c2c(NCC3CO3)cccc21 (centres undefined) | inactive: > 51.4 µM
Cc1ccc(-c2c(C#N)c(-c3ccc([N+](=O)[O-])cc3)c(C#N)c(=O)n2NS(=O)(=O)c2ccc(C)cc2)cc1 | inactive: 49.7 µM
C=C(C)C12CC(COC(=O)c3ccccc3)C34OC5(OC1C3C1OC1(CO)C(O)C1(O)C(OC(=O)c3ccccc3)C(C)C(C(C)CCCCCCC5O)C14)O2 (centres undefined) | inactive: > 100 µM
CCOC(=O)/C(C(=O)Nc1cccc(C(F)(F)F)c1)=C(/N)N1CCOCC1 | inactive: > 100 µM
CC(C)c1cc(C(C)C)c(S(=O)(=O)N=[N+]=[N-])c(C(C)C)c1 | inactive: > 100 µM
CCCCCCCCCCCCCC(=O)OCC1OC(=O)C(O)C1O (centres undefined) | inactive: > 100 µM
COc1ccc(/C=N/Nc2nc3ccccc3c(=O)n2-c2ccccc2)cc1 | inactive: > 100 µM

SMILES | GI50
CCCCCCCCCc1c(O)c(O)c(CCCCCCCCC)c(CCCCCCCCC)c1CCCCCCCCC | inactive: > 100 µM
O=C1C=CC(=O)N1n1c(-c2ccccc2)n[nH]c1=O | inactive: > 100 µM
CCCCCCCCCCCCCCCCCC(=O)O[C@H](COC(=O)CCCCCCCCCCC)COC(=O)CCCCCCCCCCCCCCC | inactive: > 100 µM
CCCCCCCCCCCOC(=S)NC(C)C | inactive: 31.6 µM
CN(C)CC1CCC(CN(C)C)C(=O)C1=O (centres undefined) | inactive: 20 µM
COc1cc2cc[n+]3c4cc(OC)c(OC)cc4c(C)cc3c2cc1OC | inactive: > 100 µM
COc1ccc2nc3c([N+](=O)[O-])ccc4c3c(c2c1)N=CN4CCN(C)C | inactive: 4.03 µM
O=C(O)c1c2c(cc3c1CC1(Cc4cc5c(cc4C1=O)CCC5)C3)CCC2 (centres undefined) | inactive: > 100 µM
O=C(CC1Sc2ccccc2NC1=O)Nc1ccc([N+](=O)[O-])cc1[N+](=O)[O-] (centres undefined) | inactive: 36.6 µM
C[Si]1(C)C(c2ccccc2)=CC2C(c3ccccc3)(c3ccccc3)OC21c1ccccc1 (centres undefined) | inactive: > 100 µM
O=C1C(=O)N(c2ccc(Cl)cc2)C(=O)C(=O)C1c1nc2ccccc2o1 | inactive: > 100 µM
Clc1cccc(/N=C/C=C/Nc2cccc(Cl)c2)c1 | inactive: > 10 µM
Cc1ccc(Oc2ccccc2N)cc1 | inactive: 25.4 µM
COC(=O)[C@](NC(=O)OCc1ccccc1)([C@@H](C)[S+]([O-])c1ccc(C)cc1)C(F)(F)F (some centres undefined) | inactive: > 100 µM
O=C1/C(=C/c2ccccc2)N=C(c2ccccc2)N1C1Nc2cc3c(cc2S1)NC(N1C(=O)/C(=C/c2ccccc2)N=C1c1ccccc1)S3 (centres undefined) | inactive: 23.3 µM
CC(C)=CCC/C(C)=C/CC/C(C)=C/CC/C=C(\C)CC/C=C(\C)CCC1SC1(C)C (centres undefined) | inactive: > 100 µM
CC(=O)Oc1cc2c(cc1OC(C)=O)OCC(c1ccc(C)cc1)C2 (centres undefined) | inactive: 43.7 µM
S=C1N(/N=C/c2c3ccccc3cc3ccccc23)C(=N\c2ccccc2)/C(=N/c2ccccc2)N1c1ccccc1 | inactive: > 100 µM
CCOC(=O)C(NC(=O)c1nc[nH]c1/N=N/N(C)C)C(C)C (centres undefined) | inactive: > 100 µM
COc1ccc(NC(C)=O)c(C(O)CCNC(C)=O)c1 (centres undefined) | inactive: > 100 µM
O=C1C2=Cc3ccccc3OC2(O)Oc2cc(O)ccc21 (centres undefined) | inactive: > 100 µM
CCOC(=O)/C=C\C(C#N)(C#N)/N=C/c1ccsc1 | inactive: 18.2 µM
NS(=O)(=O)c1cccc(NC(=S)NC(=O)Nc2ccc(Cl)c(Cl)c2)c1 | inactive: 30.7 µM
O=C(NNc1ccccc1)/C(=C/c1ccc2c(c1)OCO2)NC(=O)c1ccccc1 | inactive: > 100 µM

SMILES | GI50
CCOC(=O)C1S/C(=N/c2ccc(Cl)cc2C)N=C1C (centres undefined) | inactive: 24.7 µM
CC(C)(C)OC(=O)N(CCCCNCc1ccc2ccccc2c1)CCCNCc1ccc2ccccc2c1 | inactive: 1.65 µM
O=C1c2ccccc2C(=O)N1C(=S)c1ccccc1 | inactive: > 100 µM
CC1=C(N2CC2)C(=O)c2ccccc2C1=O | inactive: 2.34 µM
CC(C)C1CO[C@]2(C)CCC(=O)N12 (some centres undefined) | inactive: > 100 µM
C=C1C(=O)OC2C[C@H](C)C3CC(=O)C(C)=C3CC12 (some centres undefined) | inactive: 28.2 µM
CCCCOC(=O)C1C2CCC(O2)C1C(=O)OCCCC (centres undefined) | inactive: 47.5 µM
CCOc1cc(C=O)c2c(ccc3ccc(OC)c(OC)c32)c1OC | inactive: > 100 µM
CCOc1cc(C2CC(c3ccc(NS(=O)(=O)c4cc([N+](=O)[O-])ccc4C)cc3)=NN2C(=O)c2ccccc2)ccc1O (centres undefined) | inactive: 41.1 µM
COC(=O)/C(=N\NC(C)(C)C)C(C(=O)OC)C(=O)C(=O)Nc1cc(Cl)ccc1Cl (centres undefined) | inactive: > 100 µM
C=CCSC1=N/C(=C\c2ccc(OC)cc2)C(=O)N1CC=C | inactive: 54.5 µM
O=C(c1nc2ccc(Cl)cc2nc1O)C(O)c1ccc2c(c1)OCO2 (centres undefined) | inactive: > 100 µM
Cc1c(-c2ccccc2)[nH]c2ccc(Cl)cc2c1=O | inactive: 81.7 µM
CCOC(=O)c1c(N2CCOCC2)[nH]c(=O)c(C(c2ccc(N(C)C)cc2)c2c(O)c(C(=O)OCC)c(N3CCOCC3)[nH]c2=O)c1O | inactive: > 100 µM
CC(C)(C)OC(=O)NNC(=O)C1Cc2ccccc2OC1=O (centres undefined) | inactive: > 100 µM
COc1ccc(CNC2=Nc3ccncc3S(=O)(=O)N2c2ccccc2)cc1 | inactive: > 100 µM
O=[N+]([O-])c1ccc(N/N=C/c2ccc(OCCCCCCCCCCCO)cc2)c([N+](=O)[O-])c1 | inactive: 35 µM
Cn1c(=O)c2c(ncn2CCSS(=O)(=O)O)n(C)c1=O | inactive: > 100 µM
CCCCCCCCCCCCCP(=O)(O)OCC | inactive: > 100 µM
CCCCCCCCCCCCCCCCOCC(CC(F)(F)P(=O)(O)O)OC(C)=O (centres undefined) | inactive: > 50 µM
O=C(CCc1cc(O)cc(O)c1)NCCc1cc(O)cc(O)c1 | inactive: > 100 µM
C[n+]1c(-c2ccc(/C=N/NC(=O)C(=O)N/N=C/c3ccc(-c4cn5ccccc5[n+]4C)cc3)cc2)cn2ccccc21 | inactive: > 100 µM
